# Test results taken from the supplement of paper PMC8728848.
# The other results are listed elsewhere or left out.
# B1: HA-11100 (Pseudomonas aeruginosa), Q02G51_PSEAB (protein)
# chain: QFNPNEIKISQQGKTTLIDQSTQRAIINWKGFDVSADEAVRFNQPGVTSSTLNRVTAGQESVIAGRISAPGQVIIYNSNGVVFSGSAKVDVGSLITTTANISDEHFRQGKLIFDQPGNPDARIVNDGSISVAEKGLAAFVAPSVANNGVINARLGTVAMAAGNAATIDLYG
# Key:
# Assay in all cases: glycan array binding signal (z-score within array); higher = stronger binding
# Conditions in all cases: glycan notation: IUPAC condensed, linker removed
# [1] = molecular target: Fuc(a1-2)[GalNAc(a1-3)]Gal(b1-3)GlcNAc(b1-3)GalNAc
# Method in brief: (§1)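 Arrays were curated from the Consortium for Functional Glycomics database, 3228 in total, and kept only where the protein sequence was available. Binding is expressed as a within-array Z-score. This score was averaged across arrays of the same protein sequence at different concentrations or buffers and across linkers, and negative values can be read as non-binding.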
# [2] = molecular target: Fuc(a1-2)[GalNAc(a1-3)]Gal(b1-3)GlcNAc(b1-6)GalNAc
# Method in brief: as §1
# [3] = molecular target: Fuc(a1-2)[GalNAc(a1-3)]Gal(b1-4)Glc
# Method in brief: as §1
# [4] = molecular target: Fuc(a1-2)[GalNAc(a1-3)]Gal(b1-4)GlcNAc
# Method in brief: as §1
# [5] = molecular target: Fuc(a1-2)[GalNAc(a1-3)]Gal(b1-4)GlcNAc(b1-2)Man
# Method in brief: as §1
# [6] = molecular target: Fuc(a1-2)[GalNAc(a1-3)]Gal(b1-4)GlcNAc(b1-2)Man(a1-3)[Fuc(a1-2)[GalNAc(a1-3)]Gal(b1-4)GlcNAc(b1-2)Man(a1-6)]Man(b1-4)GlcNAc(b1-4)GlcNAc
# Method in brief: as §1
# [7] = molecular target: Fuc(a1-2)[GalNAc(a1-3)]Gal(b1-4)GlcNAc(b1-2)Man(a1-3)[Fuc(a1-2)[GalNAc(a1-3)]Gal(b1-4)GlcNAc(b1-2)Man(a1-6)]Man(b1-4)GlcNAc(b1-4)[Fuc(a1-6)]GlcNAc
# Method in brief: as §1
# [8] = molecular target: Fuc(a1-2)[GalNAc(a1-3)]Gal(b1-4)GlcNAc(b1-3)Gal(b1-4)GlcNAc
# Method in brief: as §1
# [9] = molecular target: Fuc(a1-2)[GalNAc(a1-3)]Gal(b1-4)GlcNAc(b1-3)Gal(b1-4)GlcNAc(b1-3)Gal(b1-4)GlcNAc
# Method in brief: as §1
# [10] = molecular target: Fuc(a1-2)[GalNAc(a1-3)]Gal(b1-4)GlcNAc(b1-3)GalNAc
# Method in brief: as §1
# [11] = molecular target: Fuc(a1-2)[GalNAc(a1-3)]Gal(b1-4)GlcNAc(b1-3)[Fuc(a1-2)[GalNAc(a1-3)]Gal(b1-4)GlcNAc(b1-6)]GalNAc
# Method in brief: as §1
# [12] = molecular target: Fuc(a1-2)[GalNAc(a1-3)]Gal(b1-4)GlcNAc(b1-6)GalNAc
# Method in brief: as §1
# [13] = molecular target: Fuc(a1-2)[GalNAc(a1-3)]Gal(b1-4)[Fuc(a1-3)]GlcNAc
# Method in brief: as §1
# [14] = molecular target: Fuc(a1-2)[GalNAc(a1-3)]Gal(b1-4)[Fuc(a1-3)]GlcNAc(b1-3)GalNAc
# Method in brief: as §1
# [15] = molecular target: Fuc(a1-2)[GalNAc(a1-4)]Gal(b1-4)GlcNAc
# Method in brief: as §1
# [16] = molecular target: Fuc(a1-2)[GalNAc(b1-3)]Gal
# Method in brief: as §1
# Fuc(a1-3)GlcNAc = molecular target: Fuc(a1-3)GlcNAc
# Method in brief: as §1
# [17] = molecular target: Fuc(a1-3)[Gal(b1-4)]Glc6S
# Method in brief: as §1
# [18] = molecular target: Fuc(a1-3)[Gal(b1-4)]GlcNAc
# Method in brief: as §1
# [19] = molecular target: Fuc(a1-3)[Gal(b1-4)]GlcNAc(b1-2)Man
# Method in brief: as §1
# [20] = molecular target: Fuc(a1-3)[Gal(b1-4)]GlcNAc(b1-2)Man(a1-3)[Fuc(a1-3)[Gal(b1-4)]GlcNAc(b1-2)Man(a1-6)]Man(b1-4)GlcNAc(b1-4)GlcNAc
# Method in brief: as §1
# [21] = molecular target: Fuc(a1-3)[Gal(b1-4)]GlcNAc(b1-2)Man(a1-3)[Fuc(a1-3)[Gal(b1-4)]GlcNAc(b1-2)Man(a1-6)]Man(b1-4)GlcNAc(b1-4)[Fuc(a1-6)]GlcNAc
# Method in brief: as §1
# [22] = molecular target: Fuc(a1-3)[Gal(b1-4)]GlcNAc(b1-3)Gal(b1-3)[Fuc(a1-4)]GlcNAc
# Method in brief: as §1
# [23] = molecular target: Fuc(a1-3)[Gal(b1-4)]GlcNAc(b1-3)Gal(b1-4)[Fuc(a1-3)]GlcNAc
# Method in brief: as §1
# [24] = molecular target: Fuc(a1-3)[Gal(b1-4)]GlcNAc(b1-3)Gal(b1-4)[Fuc(a1-3)]GlcNAc(b1-3)Gal(b1-4)[Fuc(a1-3)]GlcNAc
# Method in brief: as §1
# [25] = molecular target: Fuc(a1-3)[Gal(b1-4)]GlcNAc(b1-3)GalNAc
# Method in brief: as §1
# [26] = molecular target: Fuc(a1-3)[Gal(b1-4)]GlcNAc(b1-6)GalNAc
# Method in brief: as §1
# [27] = molecular target: Fuc(a1-3)[Gal(b1-4)]GlcNAc(b1-6)[Gal(b1-3)GlcNAc(b1-3)]Gal(b1-4)Glc
# Method in brief: as §1
# [28] = molecular target: Fuc(a1-3)[Gal(b1-4)]GlcNAc6S
# Method in brief: as §1
# [29] = molecular target: Fuc(a1-3)[Gal3S(b1-4)]Glc
# Method in brief: as §1
# [30] = molecular target: Fuc(a1-3)[Gal3S(b1-4)]GlcNAc
# Method in brief: as §1
# [31] = molecular target: Fuc(a1-3)[Gal3S(b1-4)]GlcNAc6S
# Method in brief: as §1
# [32] = molecular target: Fuc(a1-3)[GalNAc(b1-4)]GlcNAc
# Method in brief: as §1
# [33] = molecular target: Fuc(a1-3)[GalNAc(b1-4)]GlcNAc6S
# Method in brief: as §1
# Fuc(a1-4)GlcNAc = molecular target: Fuc(a1-4)GlcNAc
# Method in brief: as §1
# Fuc(b1-3)GlcNAc = molecular target: Fuc(b1-3)GlcNAc
# Method in brief: as §1
# Gal(a1-2)Gal = molecular target: Gal(a1-2)Gal
# Method in brief: as §1
binder,measurement,setting,value
B1,glycan array binding signal (z-score),[1],0.183
same,glycan array binding signal (z-score),[2],-0.673
same,glycan array binding signal (z-score),[3],-0.174
same,glycan array binding signal (z-score),[4],-0.44
same,glycan array binding signal (z-score),[5],-0.343
same,glycan array binding signal (z-score),[6],2.99
same,glycan array binding signal (z-score),[7],-0.102
same,glycan array binding signal (z-score),[8],-0.411
same,glycan array binding signal (z-score),[9],0.727
same,glycan array binding signal (z-score),[10],-0.36
same,glycan array binding signal (z-score),[11],-0.169
same,glycan array binding signal (z-score),[12],0.003
same,glycan array binding signal (z-score),[13],-0.26
same,glycan array binding signal (z-score),[14],2.04
same,glycan array binding signal (z-score),[15],0.006
same,glycan array binding signal (z-score),[16],-0.384
same,glycan array binding signal (z-score),Fuc(a1-3)GlcNAc,-0.436
same,glycan array binding signal (z-score),[17],-0.236
same,glycan array binding signal (z-score),[18],-0.08
same,glycan array binding signal (z-score),[19],-0.372
same,glycan array binding signal (z-score),[20],0.054
same,glycan array binding signal (z-score),[21],3.33
same,glycan array binding signal (z-score),[22],-0.148
same,glycan array binding signal (z-score),[23],-0.502
same,glycan array binding signal (z-score),[24],-0.007
same,glycan array binding signal (z-score),[25],-0.547
same,glycan array binding signal (z-score),[26],0.195
same,glycan array binding signal (z-score),[27],-0.327
same,glycan array binding signal (z-score),[28],-0.297
same,glycan array binding signal (z-score),[29],-0.268
same,glycan array binding signal (z-score),[30],-0.404
same,glycan array binding signal (z-score),[31],-0.228
same,glycan array binding signal (z-score),[32],-0.403
same,glycan array binding signal (z-score),[33],-0.304
same,glycan array binding signal (z-score),Fuc(a1-4)GlcNAc,0.022
same,glycan array binding signal (z-score),Fuc(b1-3)GlcNAc,-0.404
same,glycan array binding signal (z-score),Gal(a1-2)Gal,-0.035
